Measurements as given in ChEMBL document CHEMBL1201862, “PubChem BioAssay data set” (2004).

System: NCI-H322M
Experiment: DTP human tumour cell line panel, 48 h

Compound	GI50
CC1=NN(C(=O)c2ccc(Cl)cc2)C(=O)/C1=C/c1cccc([N+](=O)[O-])c1	inactive: > 100 µM
COc1ccc2[nH]c(C(=O)N3CC(CCl)c4ccc(N)cc43)cc2c1 (stereo not drawn)	active: 0.384 µM
CC1=CC(O)C(O)C2(C)C1CC1OC(=O)C(O)C3C(C)C(O)C4(O)OCC13C42 (stereo not drawn)	inactive: 27.9 µM
O=C1C=C(c2c(O)ccc3ccccc23)c2ccccc2C1=O	inactive: 5.9 µM
CSc1nc(Cl)c(Br)c(Nc2cnc(O)nc2O)n1	inactive: 16.7 µM
CN(C)CCNC(=O)c1ccc(Cl)c2c(Nc3ccc(S(N)(=O)=O)cc3)c3ccccc3nc12	inactive: 1.88 µM
Cc1nc2c3c(ccc2nc1O)C(=O)c1ccccc1C3=O	inactive: 30.5 µM
[N-]=[N+]=Nc1cc(=O)n(-c2ccccc2)c(=O)n1-c1ccccc1	inactive: > 100 µM
C[C@]12C=CC(=O)C=C1[C@@H](F)C[C@H]1[C@@H]3CC[C@](O)(C(=O)CO)[C@@]3(C)C[C@H](O)[C@@]12F	inactive: > 100 µM
S=C1/C(=N/c2ccccc2)N(c2ccccc2)/C(=N\c2ccccn2)N1c1ccccc1	inactive: 16.8 µM
Cc1cn(C(C)OCCN2C(=O)c3ccccc3C2=O)c(=O)[nH]c1=O (stereo not drawn)	inactive: > 100 µM
Brc1ccc2c(c1)-c1nc3nc4c(cc3cc1CC2)CCc1ccc(Br)cc1-4	inactive: > 100 µM
COc1ccc(/C(C)=N/OC(=O)c2c(-c3ccccc3Cl)noc2C)cc1CN1CCOCC1	inactive: 31.2 µM
CCCCCCCCCCCCCCCCCCNc1ccn(C2OC(COP(=O)(O)OCC3OC(n4cc(C)c(=O)[nH]c4=O)CC3N=[N+]=[N-])C(O)C2O)c(=O)n1 (stereo not drawn)	inactive: 19.6 µM
O=C(O)COc1ccc(C(=O)/C(SS/C(C(=O)c2ccc(OCC(=O)O)c(Cl)c2Cl)=C2\C=C(c3ccc(Br)cc3)SS2)=C2/C=C(c3ccc(Br)cc3)SS2)c(Cl)c1Cl	inactive: 39.5 µM
CC(C)(C)OC(=O)NC(Cc1ccc(OCc2ccccc2)cn1)C(N)=O (stereo not drawn)	inactive: > 100 µM
C[C@]12C=CC(=O)C=C1CC[C@@H]1[C@@H]2CC[C@@]2(C)[C@H]1CC[C@]2(O)C(N)=O	inactive: > 100 µM
Cc1cc(C)n(C(=O)C(C)Sc2nnc(SC(C)C(=O)n3nc(C)cc3C)s2)n1 (stereo not drawn)	inactive: > 100 µM
CN1CCc2ccccc2C(C(=O)c2ccc3c(c2)OCO3)C1=O (stereo not drawn)	inactive: > 100 µM
CCC1(CC)CC(=NNS(=O)(=O)c2ccc(C)cc2)C1	inactive: > 100 µM
Cc1cc(O)c2c(c1)C(=O)C(c1c(C)cc3c(c1O)C(=O)C1OC1C3=O)=CC2=O (stereo not drawn)	inactive: 10.9 µM

Compound	GI50
O=C1CC(CC(O)[C@@H]2CCCC[C@@H]2O)CC(=O)N1c1ccccc1 (stereo partly drawn)	inactive: > 100 µM
CC(C)C(=O)Nc1nc2c(ncn2C2OC(CO)C(O)C2O)c(=O)[nH]1 (stereo not drawn)	inactive: > 100 µM
O=C(O)c1c(CC(Cc2ccc3c(c2)CCCC3)C(=O)O)ccc2c1CCCC2 (stereo not drawn)	inactive: > 100 µM
O=c1ccn(C2OC(COC3CCCCO3)C(OC3CCCCO3)C2OC2CCCCO2)c(=O)n1-c1ccccc1 (stereo not drawn)	inactive: > 100 µM
CN(C)CC1CN(C(=O)Nc2ccccc2)C(=N)O1 (stereo not drawn)	inactive: > 100 µM
Cc1ccc(S(=O)(=O)NN=C2CCCCCCCCCCC2)cc1	inactive: > 100 µM
O=C(c1cc(Cl)ccc1Cl)N1CCN(C(=O)c2cc(Cl)ccc2Cl)CC1	inactive: > 100 µM
CC(C)(CN1CCCCC1)C(=O)CC(SCCS(=O)(=O)O)c1ccccc1 (stereo not drawn)	inactive: 16 µM
O=[N+]([O-])c1ccc(Sc2c3ccccc3nc3ccccc23)nc1	inactive: 22.4 µM
CC(C)(C)O/C=C1/C(=O)OC2C[C@@H](O[Si](C)(C)C(C)(C)C)CC12 (stereo partly drawn)	inactive: > 100 µM
O=C(NC(=S)Nc1ccc([N+](=O)[O-])cc1)c1ccc2c(c1)Sc1ccccc1O2	inactive: > 100 µM
Clc1ccc(Cc2nc3cc(CCN4CCN(c5ccccc5)CC4)ccc3[nH]2)cc1	inactive: 29.6 µM
O=C1C(C(O)(C(F)(F)Cl)C(F)(F)Cl)CCCC1C(O)(C(F)(F)Cl)C(F)(F)Cl (stereo not drawn)	inactive: > 10 µM
CCCCC(C(=O)NCCNC(=O)CCC(=O)N(C)O)C(=O)NCCNC(=O)CCC(=O)N(C)O	inactive: > 100 µM
Cc1[nH]c(=O)[nH]c(=O)c1C(=O)N(CCO)Cc1ccccc1	inactive: > 100 µM
O=C1NC(=O)C(C(=O)C(=O)Nc2ccc(Br)cc2)C(=O)N1	inactive: > 100 µM
O=c1[nH]c(Br)nc2c(N3CCCCC3)c[nH]c12	inactive: > 100 µM
Nc1nn2c(C(Br)Br)cc(C(Br)Br)nc2c1[N+](=O)[O-]	inactive: 3.3 µM
O=C1/C(=C/c2ccc(Cl)cc2)CCC1CN1CCOCC1 (stereo not drawn)	inactive: 22.9 µM
COc1ccc2c3c([nH]c2c1[N+](=O)[O-])C(C)N(C(=O)/C=C/c1ccccc1)CC3 (stereo not drawn)	inactive: 4.25 µM
O=C1OC(=O)c2c1c(-c1ccccc1)nc1ccccc21	inactive: > 100 µM

Compound	GI50
O=c1[nH]c(=O)n(C2CC(O)C(CO)O2)cc1Oc1ccccc1 (stereo not drawn)	inactive: > 100 µM
CCOC(=O)c1nc(C)oc1C(F)(F)F	inactive: > 100 µM
C/C(=N\Nc1nc2ccccc2s1)c1cccnn1	inactive: 2.67 µM
CCOC(=O)C1(C(=O)OCC)COS(=O)OC1	inactive: > 100 µM
Nc1ccc2c(c1)nc1n2C(c2c(F)cccc2F)SC1 (stereo not drawn)	inactive: > 100 µM
Cc1ccc(S(=O)(=O)NC(CO)C(=O)O)cc1 (stereo not drawn)	inactive: > 100 µM
Cc1c(C(=O)NNc2ccccc2)n2c(S)nnc2c2ccccc12	inactive: > 100 µM
CC(C)(C)Sc1nnc(SC(C)(C)C)c2c(SC(C)(C)C)nnc(O)c12	inactive: 12.3 µM
COc1ccc(C(OCC2OC(n3cc(C)c(=O)[nH]c3=O)CC2n2cc(Cn3cc(Cl)c(=O)[nH]c3=O)nn2)(c2ccccc2)c2ccccc2)cc1 (stereo not drawn)	inactive: > 100 µM
CCCC/C=C1\CCC(CN2CCOCC2)C1=O (stereo not drawn)	inactive: 17.1 µM
CN(C)CCCn1nc(N)c2nc3cc(Cl)ccc3nc21	inactive: 24.1 µM
CC(=O)C1C(=O)C(=O)N(c2ccccc2C(C)C)C1=O (stereo not drawn)	inactive: > 100 µM
Cc1ccc(/N=N/c2c(O)ccc3cc(S(=O)(=O)O)ccc23)cc1	inactive: 60.4 µM
CC(NC(=O)Cc1ccc(OP(=O)(OCc2ccc([N+](=O)[O-])o2)N(C)CCCCCl)cc1)c1ccc(OCC2CCCCC2)c(C(N)=O)c1 (stereo not drawn)	inactive: 2.8 µM
O=C(NNC(=O)c1ccncc1)c1ccncc1	inactive: > 100 µM
CC(=O)OC[C@H]1O[C@@H](O[C@H]2[C@H](OC(C)=O)C=CO[C@@H]2COC(C)=O)C(OC(C)=O)[C@H]2OC(C)(C)O[C@H]21 (stereo partly drawn)	inactive: > 100 µM
COc1cccc2c1C(=O)c1c(O)c3c(c(O)c1C2=O)C[C@@](O)(C(=O)CO)CC3OC1CC(NCCCCC(OC(C)=O)OC(C)=O)C(O)C(C)O1 (stereo partly drawn)	active: 0.00338 µM
CC(C)C1COC(C(C)(C)C2=N[C@@H](C(C)C)CO2)=N1 (stereo partly drawn)	inactive: > 100 µM
COc1ccc(CN[C@H]2CCc3cc(OC)c(OC)c(OC)c3-c3ccc(SC)c(=O)cc32)c(OC)c1OC	active: 0.0279 µM
COc1ccc(OC)c(C#Cc2ccc(OC)c(C(=O)NCCc3ccc(F)cc3)c2)c1	inactive: > 100 µM
COc1cc2c3c(n(C)c(=O)c2cc1OC)-c1cc2c(cc1C3=O)OCO2	inactive: 40.1 µM

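All cell lines were grown in 96-well plates and treated with compound for 48 hours. GI50: concentration for 50% inhibition of growth.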 Activity calls are given as the source filed them. No stated cut-off is given here; in the data, active = GI50 up to about 1.1 µM and inactive = higher.
